# Laboratory results: the supplement of paper PMC10338343
# ± gives the standard deviation. Over roughly 6,600 sequences, “pre-steady-state target cleavage rate” has its median near 0.07; the highest 2% begin near 0.72. The entries are a selection whose mix differs from that of the whole data set.
# System: MIWI (PIWIL1) piRISC loaded with Kctd7 piRNA (30 nt)
# Assay: pre-steady-state target cleavage rate (min^-1); MIWI and MILI are mouse PIWI proteins and EfPiwi is from a freshwater sponge; tags in brackets are library labels; higher = faster piRNA-guided slicing of the target
# Settings: guide: Kctd7 piRNA 5'p-UGUUAAUCUCUCAGAGAAGGUGACAGUGAU; auxiliary factor: 500 nM mouse GTSF1
# How it was run: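 Reactions were run for 0–8 or 0–960 min at 33 °C in HEPES–potassium acetate buffer, combining 1 nM active affinity-purified piRISC with one synthetic guide, […] transcribed, DNA-blocked target RNA library and, in some cases, 500 nM GTSF1 partner protein. Sequencing of uncleaved targets followed, with normalisation to depth and to weakly complementary targets. Three trials were pooled, k3 was capped at 0.0001 min^-1, and the pre-steady-state cleavage rate was taken from a burst-and-steady-state fit.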
# 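Further: 1 nM active piRISC with 0.1 nM target library at 33 °C single turnover.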
row,Sequence,pre-steady-state target cleavage rate
1,UAGUCUGUCACCUUCUCUCAGAGAUUAACA,0.121 ± 0.0091
2,UAGUCUGUCACCUUCUCUGAGACAAUAACA,0.0313 ± 0.0097
3,AUCACUGUCACCUUCACUGAGAGAAUAACA,0.261 ± 0.059
4,AUCACUCUCUCCUUCUCUGAGAGAUUAACA,0.4 ± 0.026
5,UAGACUGUCACCUUCUAUGAGAGAUUAACA,0.176 ± 0.018
6,AUGACUGUCACCUUCUCUGACAGAUUAACA,0.143 ± 0.016
7,AUCACUUCACCUUCUCUGAGAGAUUAACA,0.652 ± 0.038
8,UAGUGACACACCUUCUCUGAGACGAUUAACA,0.0061 ± 0.0026
9,UAGUGUGUGACCUUCUCAGAGAGAUUAACA,0.166 ± 0.011
10,UAGUGAGUCACACUUCUCUGAGAGAUUAACA,0.361 ± 0.018
11,UAGUGACUCACCUUCUGUGAGACAUUAACA,0.0496 ± 0.008
12,UAGACUGUCACGUUCUCUGAGAGAUUAACA,0.671 ± 0.042
13,UAGUGACACACCAUCUCUGAGAGAUUAAGA,0.0216 ± 0.006
14,UAGACUGUCACCUUCUCUGAGAGAUAAACA,0.355 ± 0.038
15,UAGUGAGUCACCCUUCUCUGAGAGAUUAACA,0.477 ± 0.041
16,UAGUGACAGUCCUUCUCAGAGAGAUUAUCA,0.0056 ± 0.0039
17,UAGUGACUGUGCUUCUCUGAGAGAUUAAGA,0.00915 ± 0.0029
18,UUCAGUGUCACCUUCUCUGAGAGUUUAACA,0.37 ± 0.059
19,UAGUGACAGUCCUUCUCUGAGAGCAUUAACA,0.0184 ± 0.0048
20,UACACUGUCAGCUUCUCUGUGAGAUUAACA,0.205 ± 0.013
21,UAGUGACAGUGCUUCUCUGAGAGAUUGAACA,0.00567 ± 0.0026
22,UUCACUGUCACCUUCUCUGUGAGAAUAACA,0.0493 ± 0.0095
23,UAGUGACACACCAUGUCUGAGAGAUUAACA,0.00514 ± 0.0044
24,UAGUCUGUCAGCUUGUCUGAGAGAUUAACA,0.103 ± 0.011

row,Sequence,pre-steady-state target cleavage rate
1,UUCACUGUCACCUUCUCUGAGGAGAUUAACA,0.0141 ± 0.0076
2,UAGACUGUCAGCUUCUCUGAGAGAAUAACA,0.167 ± 0.027
3,AUCACUGUCACCUUCUUUGAGAGAUUAACA,0.656 ± 0.033
4,AUCACUGUCACCUUCUCGAGAGAUUAACA,0.105 ± 0.019
5,UACACUGUCACCUUCUCACAGAGAUUUUGA,0.0214 ± 0.011
6,UACACUGUCACCUUCUCACAGAGAUUAUGA,0.00629 ± 0.0054
7,UUCACUGUCACCUUCUCUGAGAGAUUAUCA,0.353 ± 0.044
8,UAGUGACUCACCUUCUCUAGAGAUUAACA,0.0136 ± 0.0051
9,UUCACUGUCACCAUCUCUGAGAGAUAUUGA,0.00824 ± 0.004
10,UAGUGACACACCUUCUCUGAGAGAUCAACA,0.173 ± 0.025
11,AUCACUGUCACCUUCUCAGAGAGAUAUUGA,0.00956 ± 0.0054
12,AAGUCUGUCACCUUCUCUGAGAGAUUAUGA,0.0617 ± 0.016
13,UUCACUGUCACCUUCACUGACAGAUUAACA,0.273 ± 0.029
14,UAGUGUGUCACCUUCUCUGAGUAGAUUAACA,0.00758 ± 0.004
15,UACACUGUCACCUUCUAUGAGAGAUUAACA,0.253 ± 0.024
16,UAGAGUGUCAGCUUCUCUGAGAGAUUAACA,0.772 ± 0.044
17,UAGUCUGUGCACCUUCUCUGAGAGAUUAACA,0.417 ± 0.036
18,UUGACUGUCACCUUGUCUGAGAGAUUAACA,0.437 ± 0.069
19,UAGUGUGUCACCUUCUCUGAGAGAUUAAUCA,0.313 ± 0.042
20,UAGUCUGCUCACCUUCUCUGAGAGAUUAACA,0.607 ± 0.035
21,AUCAGUGUCAGCUUCUCUGAGAGAUUAACA,0.734 ± 0.034
22,AUCACUGUCACGUUCUCUGAGAGAUUAAGA,0.118 ± 0.02
23,UUCACUGUCACCUUCUCUCAGAGAAUAACA,0.0324 ± 0.0074
24,AUCACUGUCACCUUCUGUCAGAGAUUAACA,0.0155 ± 0.0058

row,Sequence,pre-steady-state target cleavage rate
1,AUCACUGUCACCUUCUCUGUGAGAAUAACA,0.0993 ± 0.019
2,AUCACUGAGACCUUCUCUGAGAGAUUUUGA,0.0423 ± 0.012
3,UAGUGACAGACCUACUCUGAGAGAUUUACA,0.00746 ± 0.0032
4,UACACUGUCACCUUCUCAGAGACAUUAACA,0.122 ± 0.013
5,UAGUGACAGUCCUCCUCUGAGAGAUUAACA,0.152 ± 0.011
6,UACACUGUCACCUUCUCUCUGAGAUUAACA,0.0197 ± 0.0062
7,UACACUGUCACCUUCUCUGAGAGACUAACA,0.264 ± 0.031
8,UAGACUGUCUCCUUGUCUGAGAGAUUAACA,0.162 ± 0.025
9,UAGACUCACACCUUCUCUGAGAGAUUAACA,0.529 ± 0.037
10,UACACUGUCACCUUCUCUGAGUGUUUAACA,0.0779 ± 0.018
11,UAGUGUGUCACCUUCUCUGAGAGAUUUUGA,0.105 ± 0.023
12,UUCUCAGUCACCUUCUCUGAGAGAUUAACA,0.19 ± 0.032
13,UUCACAUGUCACCUUCUCUGAGAGAUUAACA,0.299 ± 0.029
14,UACACUGUCACCUUGACUGAGAGAUUUUGA,0.117 ± 0.039
15,UACACUGUCACCUUCUCUGAGAGAUUAAACA,0.409 ± 0.038
16,UAGACUCUCACCUUCUCUGAGAGAUUUACA,0.273 ± 0.04
17,UAGUCUGUCACCUUGUCUGAGAGAUUAAGA,0.0831 ± 0.026
18,UAGACUGUCACCUUCUCUGAGAGAUUACCA,0.178 ± 0.032
19,UAGUGACUCACCUUCUCUGAGACAUUAAGA,0.00631 ± 0.0029
20,UAGUGACAGACCUUCUCUGAGAGAUAUACA,0.0324 ± 0.0083
21,AUCACUGACACCUUCUCUGAGAGAUUAUGA,0.137 ± 0.032
22,UAGUCUGUCACCUUCUCUGAAAGAUUAACA,0.474 ± 0.023
23,UAGUGAGUCACCUUCUCUGAAGAGAUUAACA,0.00466 ± 0.004
24,UAGUGACAGACCUUCUCUGAGAGAGUUAACA,0.0818 ± 0.014
